{"source": "the RNAGym collection of RNA variant scans (doi:10.7554/elife.90254)", "parents": {"B1": {"name": "LINE1-mini (parent)", "chain": "GGCAGAGCUCAACACAGCGUGGCAAAGUGGCUGUGGCUAGACUGCC"}}, "note": "Read counts are not given, so values of variants with three or more changes are uncertain.", "data": [{"variants_of": "B1", "assay": "self-cleavage, relative activity (ratio to wild type); higher = more cleavage; in vitro, sequencing; the parent is a self-cleaving ribozyme", "values": [{"variant": "G1U A14C C31G", "self-cleavage": 0.02}, {"variant": "G1C G36U C46G", "self-cleavage": 0.03}, {"variant": "G1U A14U G17C U20G G30A", "self-cleavage": 0}, {"variant": "G1C U20C C23A", "self-cleavage": 0.06}, {"variant": "G1C G7A C15G", "self-cleavage": 0.01}, {"variant": "G1U A6G G7A A39C", "self-cleavage": 0.09}, {"variant": "G1U A11G U43A C46G", "self-cleavage": 0.02}, {"variant": "G1C G22U C23U", "self-cleavage": 0.32}, {"variant": "G1C G22U G30C A41G", "self-cleavage": 0.03}, {"variant": "G1U A4G C46A", "self-cleavage": 0.12}, {"variant": "G1C U20A G33U G44U C46A", "self-cleavage": 0}, {"variant": "G1C U20A G21U G44C", "self-cleavage": 0.05}, {"variant": "G1U A24U C42U", "self-cleavage": 0}, {"variant": "G1U A14C G30A G40U", "self-cleavage": 0.01}, {"variant": "G1U C3A C8G U43A", "self-cleavage": 0.05}, {"variant": "G1U A12G G40A C45G", "self-cleavage": 0.02}, {"variant": "G1U A26U G33U", "self-cleavage": 0.12}, {"variant": "G1C U9A C10A C13U G35A", "self-cleavage": 0.01}, {"variant": "G1C G5A C13A", "self-cleavage": 0.06}, {"variant": "G1C G2U C8A G27U G36C", "self-cleavage": 0.15}, {"variant": "G1U C3A A11U U20G", "self-cleavage": 0.03}, {"variant": "G1C G5C A6G", "self-cleavage": 0.04}, {"variant": "G1C G2A G33A C45G", "self-cleavage": 0.05}, {"variant": "G1C G22A A39U C45G", "self-cleavage": 0.08}, {"variant": "G1U A6C C8U", "self-cleavage": 0.15}, {"variant": "G1C U28C U38G G40A", "self-cleavage": 0.01}, {"variant": "G1C G19U C37G U43A C46A", "self-cleavage": 0}, {"variant": "G1C G2C U20A C31U G44U", "self-cleavage": 0.03}, {"variant": "G1U A26U U34C", "self-cleavage": 0.02}, {"variant": "G1U A25G U34C G36C", "self-cleavage": 0}, {"variant": "G1U A6C C37U G40C", "self-cleavage": 0.3}, {"variant": "G1C G7C C15A G22A A39U", "self-cleavage": 0.02}, {"variant": "G1U A14G A26C C45A", "self-cleavage": 0.09}, {"variant": "G1U A4G A26C G27U", "self-cleavage": 0.02}, {"variant": "G1U A14U A24C", "self-cleavage": 0.07}, {"variant": "G1U A11U G22A C23G", "self-cleavage": 0.04}, {"variant": "G1U A6G G7A C15U C31U C42G", "self-cleavage": 0.01}, {"variant": "G1U A14G C18A G27A", "self-cleavage": 0}, {"variant": "G1C G30C U32G A39C", "self-cleavage": 0.01}, {"variant": "G1U C3A G5U G33A", "self-cleavage": 0.37}, {"variant": "G1C G22A A25G G27U C31A U32A", "self-cleavage": 0.02}, {"variant": "G1C G2C G22U C46U", "self-cleavage": 0.06}, {"variant": "G1C U32A U38A G44A", "self-cleavage": 0.02}, {"variant": "G1C G22A G36A C42U", "self-cleavage": 0.03}, {"variant": "G1C G7C G22A", "self-cleavage": 0.05}, {"variant": "G1C G2A G36U", "self-cleavage": 0}, {"variant": "G1U A12U G17U A26C G27C G33C", "self-cleavage": 0.03}, {"variant": "G1C U9G A14C", "self-cleavage": 0.02}, {"variant": "G1U A24U G33A G44C", "self-cleavage": 0.05}, {"variant": "G1C G2C G27C U32G", "self-cleavage": 0.2}, {"variant": "G1C G2A G19C C31G U43A", "self-cleavage": 0.07}, {"variant": "G1C G5A G33C", "self-cleavage": 0.01}, {"variant": "G1C G7C G33U U34C C46A", "self-cleavage": 0.05}, {"variant": "G1U A4G C37A", "self-cleavage": 0.17}, {"variant": "G1C U9C C23A A26G G36U", "self-cleavage": 0.03}, {"variant": "G1C G5U A25C G35C C45G", "self-cleavage": 0.02}, {"variant": "G1C G5A A6G A12C", "self-cleavage": 0.01}, {"variant": "G1U A24C G33A", "self-cleavage": 0.05}, {"variant": "G1U A16G U38A", "self-cleavage": 0.11}, {"variant": "G1U A4G C18U", "self-cleavage": 0.26}, {"variant": "G1C G19A A24G A41C", "self-cleavage": 0.01}, {"variant": "G1C U9C A16U G40U", "self-cleavage": 0.02}, {"variant": "G1U A14G A26G G30A", "self-cleavage": 0.04}, {"variant": "G1U C3A C10U", "self-cleavage": 0.94}, {"variant": "G1U A14G G17C C23U C46U", "self-cleavage": 0.15}, {"variant": "G1U A12C A39C C42U", "self-cleavage": 0.01}, {"variant": "G1C G17C G22A", "self-cleavage": 0.05}, {"variant": "G1U A25U C45G", "self-cleavage": 0.4}, {"variant": "G1C G5A C45G", "self-cleavage": 0.06}, {"variant": "G1C G5C G27C", "self-cleavage": 0.01}, {"variant": "G1C G22U U32A", "self-cleavage": 0.03}, {"variant": "G1U A6C C31U G44A", "self-cleavage": 0.02}, {"variant": "G1C G7U C15A", "self-cleavage": 0.01}, {"variant": "G1U A4U G21U", "self-cleavage": 0.09}, {"variant": "G1U A14U C15A G21C G36U", "self-cleavage": 0.01}, {"variant": "G1U A12G C15A A25G G35A", "self-cleavage": 0.01}, {"variant": "G1C U28G C46A", "self-cleavage": 0.06}, {"variant": "G1C G2C C3U G30A G33C G35U G36C", "self-cleavage": 0.16}, {"variant": "G1U A26C G29C", "self-cleavage": 0.45}, {"variant": "G1C G19A C45A", "self-cleavage": 0.05}, {"variant": "G1C U28G C45G", "self-cleavage": 0.06}, {"variant": "G1C G17A C18G", "self-cleavage": 0.01}, {"variant": "G1U A11C A25U G40A", "self-cleavage": 0}, {"variant": "G1U A6U C18G C31A G44A", "self-cleavage": 0.03}]}]}
